About 930 (0.24%) of roughly 390,000 compounds were called active. This list was built around the results that the source calls inconclusive (neither active nor inactive); the mix of calls is not that of the screen. Calls come from the whole dose curve; as a rule, active = well fitted activation curve with a large enough effect; inconclusive = small, poorly fitted or top-dose-only effect; inactive = no such curve, though single readings can be large or run the other way. A potency beside an inconclusive call is a rough fit, not a confirmed value.
Assay: qHTS for Suppressors of FUS Proteinopathy: Primary screen using FUS-linked yeast assay; note: nearly all actives have a fitted effect of over 55% in size;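 for growth rescue (activation): plate controls were DMSO vehicle for no effect and reference control for full effect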
Conditions: S. cerevisiae FUS-expressing, OD600, 24 h; Potency: growth rescue; growth rescue (activation): at 76.6 µM (top of the series)
Method in brief: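 Quantitative HTS measuring growth restoration of FUS-toxic yeast. Galactose-induced cells (OD 0.005) were exposed 24hr at 30C to compounds at several concentrations, then absorbance at 600 nm was recorded.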
Potency is the fitted concentration of half-maximal effect; tags give direction and shape of the fitted curve.

| Compound | growth rescue (activation) | Potency |
| --- | --- | --- |
| COc1ccc(NS(=O)(=O)c2cc(C)ccc2OC)cc1OC | inactive: -8.8% |  |
| Cc1cc(C)cc(NC(=O)CCS(=O)(=O)c2ccc3nc(C)sc3c2)c1 | inactive: 8.63% |  |
| CC(C)(C)c1ccc(C(=O)O/N=C(\N)c2ccccc2)cc1 | inactive: -28.3% |  |
| O=C(CC1C(=O)NCCN1Cc1cccc(F)c1F)NCCCC1CCCC1 (stereo not given) |  | inconclusive: 20 µM [activator, partial curve] |
| C[C@@]12C(=O)N(c3cccc(F)c3)C(=O)N1[C@H](c1ccc(F)cc1)[C@@H]1C(=O)N(C3CCCCC3)C(=O)[C@@H]12 |  | inconclusive: 31.6 µM [activator, single point] |
| O=C(NCCCN1CCN(c2ccc(F)cc2)CC1)c1sc2ncccc2c1-n1cccc1 | inactive: 0.397% |  |
| CCCC(=NCCc1c(C)[nH]c2ccccc12)C1=C(O)CC(c2ccccc2)CC1=O (stereo not given) |  | inconclusive: 31.6 µM [activator, single point] |
| COc1ccc(C(=O)n2nc(C)cc2Nc2ccccc2)cc1 | inactive: 8.84% |  |
| CCOC(=O)[C@H]1[C@H]2COc3cc(OC)ccc3[C@@H]2N2C(=O)N(c3cccc(F)c3)C(=O)[C@@]12C |  | inconclusive: 28.2 µM [activator, single point] |
| CCOc1ccc(C(C(=O)NCC2CCCO2)N(CCc2cccc(C)c2)C(=O)c2snc(C(N)=O)c2N)cc1 (stereo not given) |  | inconclusive: 35.5 µM [activator, single point] |
| CC1=C(C(=O)OC(C)C)C(c2ccc(C)o2)C(C(=O)OC(C)C)=C(C)N1 | inactive: 30.6% |  |
| COC(=O)[C@]12C[C@H](CC(=O)NCC3CCCCC3)C(=O)N(Cc3ccco3)C1=C[C@H](COCc1ccccc1)O[C@@H]2C |  | inconclusive: 31.6 µM [activator, single point] |
| O=C(c1ccccc1)N1CCOC12CCN(c1ncc(C(F)(F)F)cc1Cl)CC2 |  | inconclusive: 50.1 µM [activator, single point] |
| COC(=O)[C@]12C[C@H](CC(=O)NCc3ccc(OC)c(OC)c3)C(=O)N(Cc3cccc4ccccc34)C1=C[C@H](C1CCCC1)O[C@@H]2C |  | active: 12.6 µM |
| COc1ccccc1CCNC(=O)C(=O)NCC1OCCN1C(=O)c1ccc(Cl)cc1 (stereo not given) |  | inconclusive: 6.31 µM [activator, full curve] |
| O=C(Nc1ccccc1Cl)C1CCN(c2nc3ccccc3[nH]2)CC1 | inactive: -0.356% |  |
| CCCc1ccc(-c2cc(NC(=O)CSc3n[nH]c(N)n3)n(-c3ccccc3)n2)cc1 |  | inconclusive: 44.7 µM [activator, partial curve, poor fit] |
| Cc1ccc(Cl)cc1N1CCN(C(=O)c2cc(S(=O)(=O)N3CCCCCC3)cn2C)CC1 |  | inconclusive: 22.4 µM [activator, single point] |
| CCOC(=O)c1c(-c2ccc(C)o2)csc1NC(=O)COC(=O)c1ccc(NC(N)=O)cc1 |  | inconclusive: 28.2 µM [activator, partial curve, poor fit] |
| COc1ccc(CN=C2NN=C(c3cccc(OC)c3)CS2)cc1 |  | inconclusive: 39.8 µM [activator, single point] |

| Compound | growth rescue (activation) | Potency |
| --- | --- | --- |
| CCOC(=O)CSc1nc2c(c(=O)[nH]c(=O)n2C)n1CCCc1ccccc1 |  | inconclusive: 50.1 µM [activator, single point] |
| CCOC(=O)c1c(C)n(C)c2ccc(OCC(O)CN(CC)CC)cc12 (stereo not given) | inactive: -16.6% |  |
| COc1ccc(NS(=O)(=O)c2ccc3c(c2)n(C)c(=O)n3C)cc1 |  | inconclusive: 50.1 µM [activator, single point] |
| COc1ccccc1/C=N/NC(=O)c1cccc(NC(=O)c2ccccc2C)c1 |  | inconclusive: 7.08 µM [activator, partial curve, poor fit] |
| COc1cc(C(=O)Nc2nc3c(s2)Cc2c(Br)ccc(OC)c2-3)cc(OC)c1OC |  | inconclusive: 39.8 µM [activator, single point] |
| CCOc1ccccc1NC(=O)C1CCCN1S(=O)(=O)c1ccccc1C(F)(F)F (stereo not given) |  | inconclusive: 7.94 µM [activator, full curve, poor fit] |
| Cc1nn2c(COc3ccc(NC(=O)c4ccccc4Cl)cc3)nnc2c2ccccc12 |  | active: 22.4 µM |
| CCOc1ccccc1OCCCC(=O)N1CCN(S(=O)(=O)c2cc(F)ccc2F)CC1 |  | inconclusive: 25.1 µM [activator, single point] |
| CC[C@]12c3[nH]c4ccccc4c3CCN1C(=O)C(CC(=O)NCC13CC4CC(CC(C4)C1)C3)C[C@@H]2C(=O)N1CCN(C(=O)c2ccco2)CC1 (stereo not given in full) |  | inconclusive: 22.4 µM [activator, partial curve, poor fit] |
| CC(C)(C)OC(=O)[C@H](Cc1ccccc1)NC(=O)c1nc[nH]c1C(=O)N[C@@H](Cc1ccccc1)C(=O)OC(C)(C)C |  | inconclusive: 35.5 µM [activator, partial curve, poor fit] |
| CCOC(=O)c1ccc(NC(=O)N2CCN(c3cccc(OC)c3)CC2)cc1 | inactive: 15.9% |  |
| COC(=O)c1c(C)sc(-c2c(-c3ccc4c(c3)OCCO4)[nH]c3[nH]c(=O)[nH]c(=O)c23)c1O |  | inconclusive: 35.5 µM [activator, partial curve, poor fit] |
| CCN1C(=O)[C@@H]2[C@@H](c3ccc(SC4CCCCC4)cc3)N3CCC[C@@]3(C(=O)OC)[C@@H]2C1=O |  | inconclusive: 28.2 µM [activator, single point] |
| Nc1nonc1-n1nnc(C(=O)N/N=C/c2cc(Br)ccc2O)c1CSC1=NCCS1 |  | inconclusive: 31.6 µM [activator, partial curve] |
| COC(=O)c1ccccc1NC(=O)CSc1nc(N)cc(=O)[nH]1 |  | inconclusive: 15.8 µM [activator, partial curve, poor fit] |
| Cc1cccc(NC(=O)c2c(NC(=O)c3ccccc3)sc3c2CCCC3)c1 | inactive: 9.67% |  |
| O=C(CN1C(=O)c2ccccc2S1(=O)=O)NCCSCc1c(F)cccc1Cl | inactive: -4.5% |  |
| CC(=O)Nc1ccc(-c2ccnc3c2CC(C)(C(=O)Nc2cccc(Oc4ccccc4)c2)O3)cc1 (stereo not given) |  | inconclusive: 25.1 µM [activator, partial curve] |
| COC(=O)[C@]12CCCCC=C1N(Cc1ccc(Cl)cc1Cl)C(=O)[C@H](CC(=O)NCCC(C)C)C2 |  | inconclusive: 25.1 µM [activator, partial curve, poor fit] |
| COc1ccccc1C(CNc1ncccc1[N+](=O)[O-])N(C)C (stereo not given) | inactive: 0.0885% |  |

| Compound | growth rescue (activation) | Potency |
| --- | --- | --- |
| CC(C)Oc1ccc(CNC(=O)Nc2ccc3c(c2)N(C)C(=O)c2ccccc2S3)cc1 |  | inconclusive: 28.2 µM [activator, partial curve, poor fit] |
| Cc1sc2nc(CN3CCCCC3)nc(N3CCN(C(=O)c4ccco4)CC3)c2c1C | inactive: 15.5% |  |
| Cc1[nH]n(-c2ccccc2)c(=O)c1/C=N/N1C(=O)c2cccc3cccc(c23)C1=O | inactive: 7.02% |  |
| Cc1cccc(Cn2c(SCc3ccc(C(=O)N4CCC(C)CC4)cc3)nc3ccncc32)c1 | inactive: 22.7% |  |
| COc1cc(CN2C[C@@H](CO)O[C@@H](n3cnc4c(N5CCN(c6ccccc6)CC5)ncnc43)C2)cc(OC)c1OC |  | inconclusive: 31.6 µM [activator, partial curve, poor fit] |
| CN1CCN(CCCCOc2ccc(F)cc2)CC1 | inconclusive: 20.3% [activator] |  |
| COc1ccc(CCNC(=O)c2ccc(-n3c(C)cc4c3CCCC4)cc2)cc1OC |  | inconclusive: 50.1 µM [activator, single point] |
| S=C(Nc1ccccc1)Nc1nccs1 | inactive: -23.4% |  |
| C[C@@H]1/C=C/CC(=O)N[C@H](c2cccc(Br)c2)[C@H](C)/C=C/CC(=O)N[C@@H]1c1cccc(Br)c1 |  | inconclusive: 11.2 µM [activator, partial curve] |
| CCOC(=O)c1cn(-c2ccc(F)c(F)c2F)c2c(F)c(F)c(F)cc2c1=O |  | inconclusive: 6.31 µM [activator, single point] |
| CCOCc1c(C(=O)OCC(=O)Nc2ccc(C)c(S(=O)(=O)N(C)C)c2)oc2ccccc12 |  | inconclusive: 28.2 µM [activator, partial curve, poor fit] |
| CCc1ccccc1NC(=O)CN1CCN(C(=O)c2ccc(OCc3cn4ccccc4n3)cc2)CC1 | inactive: 15.8% |  |
| O=C(O)COc1ccccc1/C=N/NC(=O)c1cc2ccccc2cc1O |  | inconclusive: 28.2 µM [activator, partial curve] |
| Cc1ccccc1-n1c(SCC(=O)Nc2ccc3c(c2)OCO3)nnc1-c1ccccn1 |  | inconclusive: 7.94 µM [activator, partial curve, poor fit] |
| COC(=O)[C@@]12C[C@@H](CC(=O)N3CCOCC3)C(=O)N(Cc3ccc4c(c3)OCO4)C1=CCC(C)(C)C2 |  | inconclusive: 8.91 µM [activator, partial curve, poor fit] |
| CCCCOC(=O)c1cccc(NC(=O)CCC(=O)O)c1 | inactive: -21.5% |  |
| COC(=O)[C@@]12C[C@@H](CC(=O)NCc3ccccc3)C(=O)N(Cc3ccccc3)C1=CCC(C)(C)C2 |  | inconclusive: 22.4 µM [activator, single point] |
| CCOc1ccc(CNC(=O)C2CCCN(S(=O)(=O)N3CCC(C)CC3)C2)cc1OC (stereo not given) |  | inconclusive: 31.6 µM [activator, single point] |
| COc1ccc(Cn2c(NC(=O)c3ccccc3)nc(Cc3ccccc3)c2-c2ccccc2)c(OC)c1 |  | inconclusive: 7.08 µM [activator, partial curve, poor fit] |
| Cc1cc(=O)[nH]c(N/N=C/c2cc(C)n(-c3ccccc3)c2C)n1 |  | active: 31.6 µM |
